The campaign covered roughly 280,000 compounds. About 1,100 (0.39%) were called active. Inconclusive means that the source gave no clear call. Such entries were picked first, then a sample of the others. The call rests on the fitted dose curve; in most records, active means well fitted inhibition curve with a large enough effect; inconclusive means small, poorly fitted or top-dose-only effect, or effect the other way; inactive means flat fitted curve, though single readings scatter. Potencies of inconclusive entries are left out as doubtful fits. Where a SMILES comes first, the peptide text is derived from it. [ ]: non-standard residue; d: D form. The star is where a group is joined. ξ: configuration not given here. ξF = NC(Cc1ccccc1)C(=O)O; Cbz = O=C(OCc1ccccc1)*
What follows are compounds tested against Microtubule-associated protein tau (Homo sapiens) (UniProt P10636) (assay: qHTS for Inhibitors of Tau Fibril Formation, Fluorescence Polarization). Conditions: K18 P301L tau heparin fibrillization, Alexa594 FP, 6 h; series mostly up to 57.7 µM.
UniProt P10636, sequence (P10636 whole entry, looked up): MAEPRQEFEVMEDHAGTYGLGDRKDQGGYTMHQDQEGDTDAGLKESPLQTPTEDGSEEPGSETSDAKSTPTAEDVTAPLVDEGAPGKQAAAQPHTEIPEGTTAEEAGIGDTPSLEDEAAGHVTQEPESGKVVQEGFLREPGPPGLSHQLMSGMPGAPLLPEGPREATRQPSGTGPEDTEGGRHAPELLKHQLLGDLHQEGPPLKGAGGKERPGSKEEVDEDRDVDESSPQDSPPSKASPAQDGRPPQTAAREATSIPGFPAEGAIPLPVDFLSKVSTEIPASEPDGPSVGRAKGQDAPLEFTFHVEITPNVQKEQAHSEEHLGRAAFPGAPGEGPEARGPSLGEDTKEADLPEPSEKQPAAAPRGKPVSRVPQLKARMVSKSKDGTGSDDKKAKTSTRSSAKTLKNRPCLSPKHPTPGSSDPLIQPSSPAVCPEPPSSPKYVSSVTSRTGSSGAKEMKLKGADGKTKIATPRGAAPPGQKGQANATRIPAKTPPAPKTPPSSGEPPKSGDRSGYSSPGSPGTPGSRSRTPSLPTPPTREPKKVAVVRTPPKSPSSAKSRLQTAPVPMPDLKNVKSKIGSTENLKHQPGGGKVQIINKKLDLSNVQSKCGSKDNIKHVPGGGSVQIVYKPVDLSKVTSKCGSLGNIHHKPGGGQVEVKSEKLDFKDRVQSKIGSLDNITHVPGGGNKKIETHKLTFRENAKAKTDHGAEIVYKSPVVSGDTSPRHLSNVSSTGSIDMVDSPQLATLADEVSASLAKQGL
How it was run: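 K18 P301L tau (15 uM unlabeled/0.24 uM Alexa 594-labeled, final) + compound + heparin 20 uM final; 100 mM NaOAc pH 7; 6 hr 37 C; ThT 30 uM final added, 1 hr RT; FP ex 555/em 632 nm.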
Further: nearly all actives have a fitted effect of over 55% in size.
Potency means the concentration at half of the fitted maximal effect; tags describe the fitted curve by direction and shape.

Row | SMILES | Potency
1 | O=C1C(Cl)=C(N2CCOCC2)C(=O)N1c1ccccc1Cl | active: 20 µM
2 | Cc1c(C(=O)OCCOc2ccc(Br)cc2)sc(=S)n1C | inconclusive [inhibitor, partial curve]
3 | CCCC(=O)N1CCN(c2nc3ccc(F)cc3s2)CC1 | inactive
4 | COc1ccc(N2C(=O)C(Cl)=C(N(CCO)Cc3ccccc3)C2=O)cc1 | inconclusive [inhibitor, partial curve]
5 | Nc1c(C(=O)Nc2ccccc2)sc2nc3c(cc12)CN(Cc1ccccc1)CC3 | inactive
6 | Cc1ccc(OCCCn2c(-c3ccc(Cl)cc3)nc3ccccc3c2=O)c(C)c1 | inactive
7 | O=C(NC(NC(=S)Nc1cccc(Cl)c1)C(Cl)(Cl)Cl)OCc1ccccc1 (centres undefined) | inconclusive [inhibitor, partial curve]
8 | Cc1ccc(C(=O)CC(=O)c2ccc(C(C)(C)C)cc2)cc1 | inconclusive [inhibitor, single point]
9 | CCCCN(C)C(=O)Cn1cnc2sc(C)c(S(=O)(=O)N3CCC(C)CC3)c2c1=O | inconclusive [inhibitor, partial curve, poor fit]
10 | COc1ccc(N2CCN(S(=O)(=O)c3ccc(Cl)c(C(F)(F)F)c3)CC2)cc1 | inactive
11 | O=c1c(C(c2ccc(Cl)cc2)c2c(O)nc3n(c2=O)CCCS3)c(O)nc2n1CCCS2 | inconclusive [inhibitor, partial curve]
12 | Cc1ccc(S(=O)(=O)/C=C\C#N)cc1 | inconclusive [inhibitor, partial curve, poor fit]
13 | CC(=O)OCC1(C)CN(c2ccccc2)N(C(=O)c2ccc(F)cc2)C1=O (centres undefined) | inconclusive [inhibitor, partial curve, poor fit]
14 | COc1ccccc1-c1nc2s/c(=C\c3cccs3)c(=O)n2n1 | inactive
15 | CC1CCN(c2nc(Cl)nc(Nc3ccc([N+](=O)[O-])cc3)n2)CC1 | inconclusive [inhibitor, single point]
16 | COc1cc(Nc2nc(SCC(=O)c3ccc(Cl)c(Cl)c3)nc3ccccc23)cc(OC)c1 | active: 14.1 µM
17 | Nc1nn(-c2ccccc2)nc1C(=O)OCc1c(F)cccc1Cl | inconclusive [inhibitor, single point]
18 | Cc1cc(C(=O)NCc2ccccc2)c2c(C)nn(-c3cccc(F)c3)c2n1 | inconclusive [inhibitor, single point]
19 | Nc1c(S(=O)(=O)O)cc(Nc2ccc(Nc3nc(Cl)nc(Nc4ccc(S(=O)(=O)O)cc4)n3)c(S(=O)(=O)O)c2)c2c1C(=O)c1ccccc1C2=O | active: 10 µM
20 | Cc1ccc2nc(-c3ccc(-c4ccccn4)s3)cn2c1 | inactive
21 | CCOC(=O)c1cc(-c2ccccc2)sc1NC(=S)Nc1cc(C)ccn1 | inconclusive [activator, partial curve]
22 | CCOC(=O)c1ccccc1NC(=O)CN1CCCN(Cc2cc(C)ccc2C)S1(=O)=O | inactive
23 | O=C(CN1C(=O)/C(=C/c2cccc(Br)c2)SC1=S)NC1=NCCS1 | inconclusive [inhibitor, single point]

Row | SMILES | Potency
24 | COc1ccc2nc(NC(=O)c3ccc(NS(=O)(=O)c4cccs4)cc3)sc2c1 | inconclusive [inhibitor, single point]
25 | Cc1ccc(-n2nnc(-c3nc(-c4cccs4)no3)c2N)cc1C | inactive
26 | CCOc1ccc(S(=O)(=O)N2CCN(c3ccccc3)CC2)c2cccnc12 | inactive
27 | O=C(c1cccnc1)N1CCN(c2ccccc2Cl)CC1 | inconclusive [activator, single point]
28 | CCC(C)c1ccccc1NC(=O)c1cc2cccc([N+](=O)[O-])c2[nH]1 (centres undefined) | inconclusive [activator, single point]
29 | Cc1ccc(/C=C2/NC(=O)N(Cc3ccccc3F)C2=O)o1 | inactive
30 | COc1ccc(/C(=N\Nc2ccccc2C(=O)O)c2ccccc2)cc1 | inconclusive [activator, single point]
31 | O=C1C2C3C=CC(C4CC34)C2C(=O)N1/N=C/c1ccc(-c2ccc(F)cc2[N+](=O)[O-])o1 (centres undefined) | inconclusive [activator, partial curve]
32 | C=CCn1c(COc2ccccc2F)nnc1SCC(=O)c1c[nH]c2ccccc12 | inconclusive [inhibitor, full curve]
33 | CC(/C=C/c1ccco1)=N\NC(=O)c1cc(C)[nH]n1 | inactive
34 | CCN1C(=O)/C(=C2\SC(=S)N(NC(=O)c3ccccc3O)C2=O)c2ccccc21 | inconclusive [inhibitor, single point]
35 | CC1CCCCC1NC(=S)Nc1ccc(SC(F)F)cc1 (centres undefined) | inconclusive [inhibitor, single point]
36 | O=C(CCCCn1c(=O)c2ccccc2n(CC(=O)Nc2cccc(C(F)(F)F)c2)c1=O)NCc1ccc2c(c1)OCO2 | inconclusive [inhibitor, partial curve]
37 | COc1cc(/C=N/NC(=O)c2cccc([N+](=O)[O-])c2)ccc1OC(=O)c1ccco1 | inactive
38 | CCc1cccc(C)c1NC(=O)CCS(=O)(=O)c1cc(Br)cc2c1N(C(=O)C1CC1)CC2 | inactive
39 | Cc1ccc(N=C2SC(C(=O)NCCc3ccccc3)CC(=O)N2C)cc1C (centres undefined) | inactive
40 | COc1ccc(NC(=S)Nc2cccc3cnccc23)cc1 | inconclusive [inhibitor, single point]
41 | CCOc1cc(CNC(=O)Cn2c(=O)c3cccn3c3ccc(F)cc32)cc(OCC)c1OCC | inactive
42 | CCSc1nnc2c(n1)OC(c1cc(OC)c(OC)c(OC)c1)Nc1ccccc1-2 (centres undefined) | inconclusive [inhibitor, full curve]
43 | CC(C)c1ccc(NC(=O)C2CCN(S(=O)(=O)c3cccc4nonc34)CC2)cc1 | inactive
44 | CCc1ccc(S(=O)(=O)NC(=S)Nc2ccccc2)cc1 | inconclusive [inhibitor, single point]
45 | COc1ccc(NC(=O)Cn2c(=O)n(CCc3ccccc3)c(=O)c3c4c(sc32)CCCC4)cc1 | inconclusive [inhibitor, partial curve]
46 | COC(=O)c1sccc1NC(=O)c1c(C)c(-c2cccc(Cl)c2)nc2ccccc12 | inconclusive [activator, single point]

Row | SMILES | Potency
47 | Cc1cccc(NC(=O)c2cn(-c3ccccc3)nc2-c2ccccc2)c1 | inconclusive [inhibitor, single point]
48 | Cn1c(Cn2nnc3ccccc32)nnc1SCC(=O)c1ccc(F)cc1 | inactive
49 | COC(=O)c1cc2oc3ccccc3c2n1CC(=O)Nc1ccc(C)c(F)c1 | inconclusive [inhibitor, full curve]
50 | O=C(O/N=C(/c1ccccc1)c1ccncc1)c1ccccc1[N+](=O)[O-] | inconclusive [activator, single point]
51 | CC(C(=O)Nc1cccnc1)N1C(=O)C2C3C=CC(C3)C2C1=O (centres undefined) | inactive
52 | Oc1ccc(Nc2nc(-c3ccc(Cl)cc3)cs2)cc1 | inconclusive [activator, partial curve, poor fit]
53 | CCN(c1ccccc1)S(=O)(=O)c1ccc(NC(=S)NC(=O)c2ccc(Br)o2)cc1 | inconclusive [inhibitor, partial curve]
54 | COc1ccc(Nc2ncc(C(=O)N3CCN(c4ccc(OC)cc4)CC3)c3ccccc23)cc1 | inconclusive [activator, full curve, poor fit]
55 | Cc1c(F)cccc1NS(=O)(=O)c1cccs1 | inactive
56 | CCCc1ccc(-c2c(C)sc(N)c2C#N)cc1 | inconclusive [activator, full curve, poor fit]
57 | CCc1ccc(NC(=O)C(=O)NCCc2sc(-c3ccc(OC)c(OC)c3)nc2C)cc1 | inactive
58 | O=C(Nc1cccc(Cl)c1)C1CCN(c2nc3ccccc3nc2C(F)(F)F)CC1 | inactive
59 | NNC(=O)c1cc2c(s1)CCCCCC2 | inactive
60 | CN(c1cccc(Cl)c1)S(=O)(=O)c1cccc(C(=O)Nc2ccc3c(c2)CCC3)c1 | inconclusive [inhibitor, single point]
61 | Cc1ccc(N2C(=O)/C(=C/c3cccnc3)SC2=S)cc1 | inactive
62 | NC(=S)NN=C1c2cc(S(=O)(=O)N3CCOCC3)ccc2-c2ccc(S(=O)(=O)N3CCOCC3)cc21 | inconclusive [activator, partial curve]
63 | O=C(/C=C/c1ccc(Cl)cc1Cl)Nc1ccncc1 | inconclusive [inhibitor, partial curve, poor fit]
64 | O=C(Cn1nnc(-c2ccccc2F)n1)Nc1ccc(S(=O)(=O)NC2CCCC2)cc1 | inconclusive [inhibitor, partial curve]
65 | Nc1nc(-c2ccccn2)nc(N)c1Cc1ccccc1F | inactive
66 | CCc1ccc(NC(=O)CSc2nc(-c3ccccc3)no2)cc1 | inconclusive [inhibitor, partial curve, poor fit]
67 | CCCC(=O)NC(=S)Nc1ccccc1F | inactive
68 | O=C(CN1CCCCC1)Nc1ccc(NC(=O)c2ccc(Cl)cc2)cc1Cl | inconclusive [inhibitor, single point]
69 | CCOC(=O)CNC(=O)C(Cc1ccccc1)NC(=O)OCc1ccccc1 (centres undefined) (Cbz-[ξF]-Gly-OEt) | inconclusive [inhibitor, full curve, poor fit]

Reference: PubChem BioAssay AID1468 (National Center for Advancing Translational Sciences (NCATS), 2008)
